Data reported in publication PMC4336329 (PLoS ONE, 2015).
About 14,000 (4.5%) of roughly 310,000 compounds showed an effect of 50% or more. The effect is printed as a negative number. The list shows a part of the results.

Biological target: human ether-à-go-go-related gene (hERG) potassium channel (human, UniProt Q12809)
Test: primary screen, population patch clamp on CHO cells stably expressing hERG
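Further: peak tail current of the secondary pulse compared with the same well before compound.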

Sequence of human ether-à-go-go-related gene (hERG) potassium channel (Q12809 whole entry, looked up): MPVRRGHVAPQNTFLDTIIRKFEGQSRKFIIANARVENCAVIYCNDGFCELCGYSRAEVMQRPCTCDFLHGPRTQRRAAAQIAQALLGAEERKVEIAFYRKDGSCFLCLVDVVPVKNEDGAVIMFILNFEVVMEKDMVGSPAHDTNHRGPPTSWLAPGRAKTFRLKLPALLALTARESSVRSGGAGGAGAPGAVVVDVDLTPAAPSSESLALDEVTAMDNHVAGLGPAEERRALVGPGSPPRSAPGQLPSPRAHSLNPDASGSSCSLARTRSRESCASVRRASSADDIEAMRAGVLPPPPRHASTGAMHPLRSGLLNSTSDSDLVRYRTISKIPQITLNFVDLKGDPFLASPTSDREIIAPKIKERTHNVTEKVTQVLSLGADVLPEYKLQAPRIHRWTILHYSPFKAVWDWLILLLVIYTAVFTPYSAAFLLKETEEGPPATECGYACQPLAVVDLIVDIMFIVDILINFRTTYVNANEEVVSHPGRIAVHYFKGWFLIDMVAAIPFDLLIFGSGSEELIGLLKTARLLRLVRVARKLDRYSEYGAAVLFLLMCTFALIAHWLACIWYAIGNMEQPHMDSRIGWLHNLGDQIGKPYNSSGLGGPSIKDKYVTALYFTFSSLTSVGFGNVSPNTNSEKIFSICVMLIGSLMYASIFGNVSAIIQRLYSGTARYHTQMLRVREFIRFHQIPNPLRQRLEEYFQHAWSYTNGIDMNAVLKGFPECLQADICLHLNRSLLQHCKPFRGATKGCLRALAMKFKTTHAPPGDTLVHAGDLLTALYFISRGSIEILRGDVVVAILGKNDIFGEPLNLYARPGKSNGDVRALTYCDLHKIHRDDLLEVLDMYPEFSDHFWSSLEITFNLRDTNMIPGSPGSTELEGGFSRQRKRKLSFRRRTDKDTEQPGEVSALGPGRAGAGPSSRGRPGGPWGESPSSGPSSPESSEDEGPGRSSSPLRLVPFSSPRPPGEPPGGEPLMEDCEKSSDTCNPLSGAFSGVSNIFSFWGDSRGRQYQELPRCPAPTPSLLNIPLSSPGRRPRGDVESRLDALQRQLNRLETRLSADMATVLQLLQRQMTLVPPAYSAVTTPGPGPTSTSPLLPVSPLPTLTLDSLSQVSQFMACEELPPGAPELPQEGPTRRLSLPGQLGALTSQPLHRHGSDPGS

| Compound | hERG current change (%, negative = inhibition) at 10uM |
| --- | --- |
| CCOC(=O)c1c(C)[nH]c(C(=O)OCC(=O)Nc2ccc(OCC)cc2)c1C | -2.99% |
| CCN(CC)c1ccc(N=Nc2ncn[nH]2)cc1 | 4.53% |
| COC(=O)[C@]1(C)N[C@H](c2ccc(-c3ccccc3)cc2)[C@@H]2C(=O)N(C)C(=O)[C@@H]21.O=C(O)C(F)(F)F | 8.15% |
| O=C(CC1(O)C(=O)N(CN2CCOCC2)c2ccccc21)c1ccccc1 (centres unmarked) | -70.4% |
| c1coc(-c2ccnc(-n3cccc3)n2)c1 | 10% |
| Cc1nnc(SCC2=C(C(=O)O)N3C(=O)C(NC(=O)c4cc(F)c(F)cc4Cl)C3SC2)s1 (centres unmarked) | -2.66% |
| COc1ccc(NC(=O)[C@H](C)NC(=O)C2CCN(S(=O)(=O)c3ccc(OC)cc3)CC2)cc1 | 12.4% |
| CCCCNC(=O)c1ccccc1NC(=O)CCSc1ccccc1 | -9.27% |
| O=C(/C=C/c1ccco1)NCC1COc2ccccc2O1 (centres unmarked) | -0.808% |
| CCOc1ccc(S(=O)(=O)NCc2ccc3c(c2)OCO3)cc1C(=O)O | 13.7% |
| CCN(CC)S(=O)(=O)c1ccc(C(=O)Nc2c3c(nn2C(C)(C)C)CS(=O)(=O)C3)cc1 | 2.06% |
| O=C(Nc1nnc(SCc2ccccc2)s1)C1=COCCO1 | -20.3% |
| CC1(c2ccccc2)NC(=O)N(CC(=O)Nc2ccc(S(=O)(=O)Nc3ncccn3)cc2)C1=O (centres unmarked) | 12.6% |
| CCN1C(=O)[C@H]2[C@@H](c3ccc(OC)cc3)N3C(=O)CN(CCOC)C(=O)[C@@]3(Cc3ccccc3)[C@H]2C1=O | -4.3% |
| Cc1ccc(C2NC(C(=O)O)CS2)cc1 (centres unmarked) | 8.9% |
| Cc1ccc(-c2noc(CN3CCOCC3)n2)cc1 | 17.6% |
| Cc1oc(-c2cccc(C(F)(F)F)c2)nc1CN1CCN(c2ccccn2)CC1 | -52.5% |
| Cc1oc(-c2ccc3c(c2)OCCO3)cc1C(=O)NC(CCC(=O)O)C(=O)O (centres unmarked) | 6.1% |
| CCc1ccccc1NC(=O)c1ccc2nc(N3CCOCC3)sc2c1 | -7.23% |
| COc1cc(OC)c2ccc(=O)oc2c1C(CCN1CCCCC1)c1ccc(N(C)C)cc1 (centres unmarked) | -16% |
| CC1=CC2=NC(=O)/C(=C/c3coc4ccc(Cl)cc4c3=O)C(=N)N2O1 | -9.44% |
| COc1ccccc1C(=O)Nc1ccc(S(=O)(=O)N2CCc3ccccc32)cc1 | -77% |
| O=C1CN(C(=O)C2CCC(=O)N(CCc3ccc(Cl)cc3)C2)CCN1 (centres unmarked) | 17.4% |
